{"source": "paper PMC4336329", "about": "(PLoS ONE, 2015)", "note": "In all, about 310,000 compounds went through this assay and about 14,000 (4.5%) showed an effect of 50% or more. The effect is printed as a negative number. This is one part of the list.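 Also: peak tail current of the secondary pulse compared with the same well before compound.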", "data": [{"molecular_target": "human ether-à-go-go-related gene (hERG) potassium channel (human, UniProt Q12809)", "sequence (Q12809 whole entry, looked up)": "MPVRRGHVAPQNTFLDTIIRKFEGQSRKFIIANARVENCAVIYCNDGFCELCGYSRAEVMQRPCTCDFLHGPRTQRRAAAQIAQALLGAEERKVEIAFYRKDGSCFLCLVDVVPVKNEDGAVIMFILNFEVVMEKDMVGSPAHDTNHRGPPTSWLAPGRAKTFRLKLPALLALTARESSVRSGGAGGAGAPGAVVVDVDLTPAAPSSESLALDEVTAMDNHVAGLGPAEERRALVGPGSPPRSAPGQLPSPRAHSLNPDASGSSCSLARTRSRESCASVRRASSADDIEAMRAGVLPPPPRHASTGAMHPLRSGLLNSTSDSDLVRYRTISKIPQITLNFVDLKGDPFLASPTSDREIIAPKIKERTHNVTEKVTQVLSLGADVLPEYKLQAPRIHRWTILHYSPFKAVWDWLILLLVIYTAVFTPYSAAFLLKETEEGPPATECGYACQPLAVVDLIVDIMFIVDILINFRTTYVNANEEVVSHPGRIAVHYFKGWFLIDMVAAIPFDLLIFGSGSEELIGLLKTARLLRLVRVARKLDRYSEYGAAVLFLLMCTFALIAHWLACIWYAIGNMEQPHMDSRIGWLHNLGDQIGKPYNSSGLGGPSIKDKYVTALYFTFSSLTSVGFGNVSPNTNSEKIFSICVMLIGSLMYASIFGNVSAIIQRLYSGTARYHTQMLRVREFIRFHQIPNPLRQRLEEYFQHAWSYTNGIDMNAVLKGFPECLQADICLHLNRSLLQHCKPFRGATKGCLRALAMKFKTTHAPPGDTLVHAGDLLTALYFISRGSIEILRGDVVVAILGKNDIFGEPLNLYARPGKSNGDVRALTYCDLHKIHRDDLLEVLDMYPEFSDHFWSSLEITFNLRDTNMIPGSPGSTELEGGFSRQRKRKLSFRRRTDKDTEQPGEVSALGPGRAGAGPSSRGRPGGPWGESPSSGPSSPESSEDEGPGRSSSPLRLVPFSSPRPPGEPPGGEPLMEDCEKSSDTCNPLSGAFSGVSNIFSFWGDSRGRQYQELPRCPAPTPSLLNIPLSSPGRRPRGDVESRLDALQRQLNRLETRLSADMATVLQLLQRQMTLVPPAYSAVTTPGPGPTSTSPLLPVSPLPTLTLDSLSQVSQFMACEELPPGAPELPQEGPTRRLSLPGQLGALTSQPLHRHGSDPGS", "assay": "primary screen, population patch clamp on CHO cells stably expressing hERG", "units": {"hERG current change (%, negative = inhibition) at 10uM": "%"}, "values": [{"smiles": "CC12COC3(C(=O)Nc4ccc(F)cc4)CC1CCC32C", "note": "(stereo not shown)", "hERG current change (%, negative = inhibition) at 10uM": -18}, {"smiles": "O=C(Cc1c[nH]c2ccccc12)NCc1ccc(Cl)cc1", "hERG current change (%, negative = inhibition) at 10uM": 14.2}, {"smiles": "COc1ccc(Cl)cc1C(=O)Nc1nc2ccccc2[nH]1", "hERG current change (%, negative = inhibition) at 10uM": 23.8}, {"smiles": "Cc1ccc(Cn2c([N+](=O)[O-])cnc2C)cc1", "hERG current change (%, negative = inhibition) at 10uM": -3.73}, {"smiles": "Cc1ccc(NS(=O)(=O)c2cc(Br)cnc2N)c(Cl)c1", "hERG current change (%, negative = inhibition) at 10uM": -0.706}, {"smiles": "CC(C)c1ccc(NC2CCCN(C(=O)c3ccoc3)C2)cc1", "note": "(stereo not shown)", "hERG current change (%, negative = inhibition) at 10uM": 4.11}, {"smiles": "COc1ccccc1CCN=C(N)NS(=O)(=O)c1ccccc1", "hERG current change (%, negative = inhibition) at 10uM": -10.1}, {"smiles": "CCCCOC(=O)c1ccc(OC(=O)c2cccnc2)cc1", "hERG current change (%, negative = inhibition) at 10uM": 1.05}, {"smiles": "CC(=O)Nc1ccc(NC(=O)CS(=O)(=O)Cc2ccccc2)cc1", "hERG current change (%, negative = inhibition) at 10uM": -4.5}, {"smiles": "CC(C)NC(=O)CSc1ncccc1-c1nc2ccccc2[nH]1", "hERG current change (%, negative = inhibition) at 10uM": -17.1}, {"smiles": "COc1cc(/C=N/NC(=O)COc2cccc(F)c2)ccc1OS(=O)(=O)c1ccc(C)cc1", "hERG current change (%, negative = inhibition) at 10uM": 5.42}, {"smiles": "Cc1ccc(C(=O)N2CCN(c3ccccc3F)CC2)cc1S(=O)(=O)N1CCOCC1", "hERG current change (%, negative = inhibition) at 10uM": -3.41}, {"smiles": "Cl.OCCN1CCN(CCOc2ccccc2-c2ccccc2)CC1", "hERG current change (%, negative = inhibition) at 10uM": -24.1}, {"smiles": "COc1ccc2sc(C)[n+](C)c2c1.[I-]", "hERG current change (%, negative = inhibition) at 10uM": 22.9}, {"smiles": "Cc1ccc(N2C(=O)N3[C@H](c4ccc(Br)cc4)[C@@H]4C(=O)N(C(C)(C)C)C(=O)[C@@H]4[C@]3(C)C2=O)cc1", "hERG current change (%, negative = inhibition) at 10uM": -0.635}, {"smiles": "CCCn1c(SC/C(O)=C(\\C#N)c2nc3ccccc3[nH]2)n[nH]c1=O", "hERG current change (%, negative = inhibition) at 10uM": 14.8}, {"smiles": "COc1ccc(OC)c(N=Cc2c(O)[nH]c(=O)[nH]c2=O)c1", "hERG current change (%, negative = inhibition) at 10uM": 16.2}, {"smiles": "COc1cc(COCC(O)CN2CCc3ccccc3C2)cc(OC)c1OC.Cl", "note": "(stereo not shown)", "hERG current change (%, negative = inhibition) at 10uM": -21.7}, {"smiles": "CC(C)(C)n1c(O)c(C=Nc2ccc3c(c2)CCC3)c(=O)[nH]c1=O", "hERG current change (%, negative = inhibition) at 10uM": 0.74}, {"smiles": "O=C(CCN=C1NS(=O)(=O)c2ccccc21)OCC(=O)c1ccccc1", "hERG current change (%, negative = inhibition) at 10uM": -26.9}, {"smiles": "CC(C)(C)NC(=O)COC(=O)c1cncc(Br)c1", "hERG current change (%, negative = inhibition) at 10uM": 8.7}, {"smiles": "CC(/C=C1\\SC(=O)N(CC(=O)Nc2cccc(O)c2)C1=O)=C\\c1ccccc1", "hERG current change (%, negative = inhibition) at 10uM": 18.6}, {"smiles": "Cc1ccccc1Cn1c(CN2CCN(c3ccc(F)cc3)CC2)nc2c1c(=O)n(C)c(=O)n2C", "hERG current change (%, negative = inhibition) at 10uM": -39.7}, {"smiles": "COCCn1c(=NC(=O)c2ccc3c(c2)OCCO3)sc2cc(S(N)(=O)=O)ccc21", "hERG current change (%, negative = inhibition) at 10uM": 4.59}, {"smiles": "CCCCn1c(N)c(N(CCOC)C(=O)CSCC(=O)Nc2cccc(C)c2)c(=O)[nH]c1=O", "hERG current change (%, negative = inhibition) at 10uM": 11.5}, {"smiles": "CCN(CC)S(=O)(=O)c1ccc(Nc2ccc(-c3ccc4c(c3)OCCO4)nn2)cc1", "hERG current change (%, negative = inhibition) at 10uM": 10.9}, {"smiles": "Cn1ccsc1=NC(=O)c1cccc(OC(F)F)c1", "hERG current change (%, negative = inhibition) at 10uM": -28.4}, {"smiles": "CC(=O)NC1(c2ccc(F)cc2)CCN(C(=O)c2c(F)cccc2F)CC1", "hERG current change (%, negative = inhibition) at 10uM": 6.96}, {"smiles": "COc1ccccc1C(=O)Nc1cccnc1", "hERG current change (%, negative = inhibition) at 10uM": 6.75}, {"smiles": "Cc1cc[n+](C2=C([O-])c3ccccc3C(=O)/C2=N\\S(=O)(=O)c2cccs2)cc1C", "hERG current change (%, negative = inhibition) at 10uM": -16.6}, {"smiles": "COC(=O)c1cnn2c3c(c(C)nc12)CCCC3", "hERG current change (%, negative = inhibition) at 10uM": 1.88}, {"smiles": "O=C(Nc1ccn(Cc2ccccc2F)n1)c1ccc(COc2ccc(Cl)cc2Cl)o1", "hERG current change (%, negative = inhibition) at 10uM": 13.6}, {"smiles": "COc1cc(Cl)c(C)cc1NC(=O)c1ccc2c(SCC(=O)O)c3c(nc2c1)CCCC3", "hERG current change (%, negative = inhibition) at 10uM": 24.3}, {"smiles": "COc1cccc(COC(=O)CCNC(=O)c2ccc(Br)cc2)c1OC", "hERG current change (%, negative = inhibition) at 10uM": -13.6}, {"smiles": "CC(C)C(C)(NC(=O)c1cccn(Cc2ccc3c(c2)OC(F)(F)O3)c1=O)C(N)=O", "note": "(stereo not shown)", "hERG current change (%, negative = inhibition) at 10uM": -3.89}, {"smiles": "O=C(CCN1C(=O)c2ccccc2S1(=O)=O)Nc1cccc(F)c1", "hERG current change (%, negative = inhibition) at 10uM": 4.62}, {"smiles": "CCN(CC)CCNC(=O)c1ccc(-n2c(C)cc3c2CCCC3=O)cc1", "hERG current change (%, negative = inhibition) at 10uM": 9.62}, {"smiles": "Cc1cc(-c2ccc(C)c(S(=O)(=O)NCCCN3CCN(c4ccccc4F)CC3)c2)on1", "hERG current change (%, negative = inhibition) at 10uM": 10.3}, {"smiles": "COC(=O)c1[nH]c2ccccc2c1NC(=O)CNC1CCCCC1", "hERG current change (%, negative = inhibition) at 10uM": 7.25}, {"smiles": "O=C(NCC(c1ccco1)N1CCCCC1)c1cccc(NS(=O)(=O)c2ccc(Br)cc2)c1", "note": "(stereo not shown)", "hERG current change (%, negative = inhibition) at 10uM": -39.1}, {"smiles": "CCn1c2c(c3cc(Cl)ccc31)CCCC2=O", "hERG current change (%, negative = inhibition) at 10uM": 3.71}, {"smiles": "COc1ccc(-c2nc3ccccc3o2)cc1NC(=O)CSc1ccc(Cl)cc1", "hERG current change (%, negative = inhibition) at 10uM": 34.8}, {"smiles": "N=C(SC1CC(=O)N(c2ccc(F)cc2)C1=O)N1N=C(c2ccccc2)CC1c1ccccc1", "note": "(stereo not shown)", "hERG current change (%, negative = inhibition) at 10uM": 42.4}, {"smiles": "O=C(CNCc1ccco1)Nc1cccc(S(=O)(=O)N2CCCCC2)c1.O=C(O)C(=O)O", "hERG current change (%, negative = inhibition) at 10uM": -13.1}, {"smiles": "CCn1c(CC(=O)Nc2ccccc2)nnc1SCC(=O)NC1CCCC1", "hERG current change (%, negative = inhibition) at 10uM": -0.93}, {"smiles": "C/C(=N/Nc1ccc([N+](=O)[O-])cc1)c1ccc(C)cc1C", "hERG current change (%, negative = inhibition) at 10uM": -5.26}, {"smiles": "c1ccc(-c2csc(Nc3ccccn3)n2)cc1", "hERG current change (%, negative = inhibition) at 10uM": 4.69}, {"smiles": "O=c1c(Cl)c(NCCO)ncn1-c1ccccc1", "hERG current change (%, negative = inhibition) at 10uM": 1.88}, {"smiles": "O=C(Nc1nc2cc3c(cc2s1)OCO3)c1ccc(N2C(=O)CCC2=O)cc1", "hERG current change (%, negative = inhibition) at 10uM": 12.2}, {"smiles": "CC(C)=CC1C(C(=O)Nc2ccc(S(=O)(=O)N3CCOCC3)cc2)C1(C)C", "note": "(stereo not shown)", "hERG current change (%, negative = inhibition) at 10uM": -6.44}, {"smiles": "[Br-].c1ccc(C[n+]2csc3ccccc32)cc1", "hERG current change (%, negative = inhibition) at 10uM": 16.1}, {"smiles": "COc1cc(C(C)=O)ccc1COc1ccc(C(=O)OCC(N)=O)cc1OC", "hERG current change (%, negative = inhibition) at 10uM": -18.4}, {"smiles": "CCOC(=O)c1cnc2ccc(C(=O)OC)cc2c1NCCc1ccc(OC)c(OC)c1", "hERG current change (%, negative = inhibition) at 10uM": -3.95}, {"smiles": "S=C(Nc1cccnc1)N1CCc2ccccc21", "hERG current change (%, negative = inhibition) at 10uM": 2.47}, {"smiles": "CC(C)c1ccccc1OCCCCCN1CCOCC1", "hERG current change (%, negative = inhibition) at 10uM": -13.5}]}]}
